The source of these data is paper PMC4336329 (PLoS ONE, 2015).

The structures appear in SMILES notation. Screen size: about 310,000 compounds; about 14,000 (4.5%) showed an effect of 50% or more. The effect is printed as a negative number. Some of the results follow.
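Note: peak tail current of the secondary pulse compared with the same well before compound.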

Sequence of human ether-à-go-go-related gene (hERG) potassium channel (Q12809 whole entry, looked up): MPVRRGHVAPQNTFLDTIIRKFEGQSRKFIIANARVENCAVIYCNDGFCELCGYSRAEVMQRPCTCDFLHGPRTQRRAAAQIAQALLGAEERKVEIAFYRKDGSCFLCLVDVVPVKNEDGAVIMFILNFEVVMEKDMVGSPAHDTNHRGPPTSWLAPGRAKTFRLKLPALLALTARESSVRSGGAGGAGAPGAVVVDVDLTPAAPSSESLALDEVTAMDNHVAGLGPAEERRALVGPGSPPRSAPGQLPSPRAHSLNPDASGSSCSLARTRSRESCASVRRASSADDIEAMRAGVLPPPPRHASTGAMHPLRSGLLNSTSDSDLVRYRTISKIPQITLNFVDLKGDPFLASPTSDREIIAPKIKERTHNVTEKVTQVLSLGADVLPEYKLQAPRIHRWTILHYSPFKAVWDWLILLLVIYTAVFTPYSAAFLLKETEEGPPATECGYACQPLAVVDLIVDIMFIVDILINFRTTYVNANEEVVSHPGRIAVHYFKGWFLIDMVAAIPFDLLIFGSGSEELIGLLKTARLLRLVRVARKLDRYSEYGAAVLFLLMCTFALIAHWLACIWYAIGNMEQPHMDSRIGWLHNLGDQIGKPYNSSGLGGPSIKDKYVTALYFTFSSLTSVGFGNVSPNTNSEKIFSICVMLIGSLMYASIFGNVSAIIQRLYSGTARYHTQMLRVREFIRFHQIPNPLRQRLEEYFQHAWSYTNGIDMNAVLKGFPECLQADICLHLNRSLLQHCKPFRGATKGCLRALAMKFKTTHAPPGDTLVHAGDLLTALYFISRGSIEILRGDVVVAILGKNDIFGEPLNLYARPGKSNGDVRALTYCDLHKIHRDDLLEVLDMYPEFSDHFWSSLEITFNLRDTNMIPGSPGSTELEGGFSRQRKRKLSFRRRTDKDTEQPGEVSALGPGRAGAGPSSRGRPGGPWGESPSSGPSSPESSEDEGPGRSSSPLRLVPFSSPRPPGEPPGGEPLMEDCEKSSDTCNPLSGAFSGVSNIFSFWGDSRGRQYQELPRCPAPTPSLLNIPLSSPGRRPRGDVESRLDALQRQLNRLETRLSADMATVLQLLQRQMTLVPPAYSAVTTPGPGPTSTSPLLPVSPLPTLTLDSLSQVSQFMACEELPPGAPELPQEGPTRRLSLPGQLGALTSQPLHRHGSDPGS

This experiment concerns the target human ether-à-go-go-related gene (hERG) potassium channel (human, UniProt Q12809). Description: primary screen, population patch clamp on CHO cells stably expressing hERG.
With `CC(=O)NCc1cc(-c2nn(C)c(=O)c3ccccc23)ccc1C`, the “hERG current change (%, negative = inhibition) at 10uM” value is given as -0.403%.
In the case of `CCC(C)Sc1nc(O)cc(=O)[nH]1` (stereo not shown) it was 1.21%; in that of `Cc1cc(-c2nc(C)c(-c3nnc(SCC(=O)Nc4ccccc4)n3C)s2)no1`, 13.4%; in that of `S=C(Nc1ccccc1)N1CCC(Cc2ccccc2)CC1`, -5.02%.
Then `O=C(COC(=O)COc1ccc(Br)cc1)NC1CCCCCC1`, with -2.53%; and `Cc1[nH]n(C2=NCCS2)c(=O)c1N=Nc1cccc(C(F)(F)F)c1`, with 7.25%.
In the case of `CCOCCCNC(=O)c1cc(Sc2nnc(C)s2)nc2ccccc12`, the “hERG current change (%, negative = inhibition) at 10uM” value is -2.23%.
Then `CCn1c(SCc2cccc(OC)c2)nc2ccccc2c1=O`, with 18.8%; and `COc1ccc(CNCCC(c2ccc(OC(C)C)cc2)c2ccccc2OC)cc1` (stereo not shown), with -66.1%.
Then `Cc1cccc(C(=O)Nc2cccc(-c3cnc4ccccc4n3)c2)c1`, with 9.62%.
Regarding `CC1CCN(C(=S)NC(=O)c2ccccc2Br)CC1`, the “hERG current change (%, negative = inhibition) at 10uM” value is listed as 18.2%.
Regarding `COc1ccc(Cn2nnnc2C(c2cccnc2)N2CCN(c3ccc(O)cc3)CC2)cc1` (stereo not shown), the “hERG current change (%, negative = inhibition) at 10uM” value is on record as -14.5%.
In the case of `CCn1c(=O)cc(OCC(=O)NCCc2ccc(OC)c(OC)c2)c2ccccc21` it was -10.8%; in that of `COc1ccc(C(=O)NCCc2nnc3ccc(SCC(=O)Nc4ccccc4)nn23)cc1`, -13.5%; in that of `Cc1cccc(N2CCN(C(=O)c3cc(S(=O)(=O)N4CCOCC4)cn3C)CC2)c1C`, -21.6%.
In the case of `COc1cc(/C=N/NC(=O)c2cccc(NC(=O)c3ccccc3C)c2)ccc1O` it was -48.4%.
In the case of `Cc1cc(-c2nnc(CCC(=O)NC(C)c3ccc(F)cc3)o2)no1` (stereo not shown) it was -7.9%.
Take `CN(C)S(=O)(=O)n1cc(/C=C(\NC(=O)c2ccccc2Cl)C(=O)NCCCN2CCOCC2)c2ccccc21`: the “hERG current change (%, negative = inhibition) at 10uM” value was 19.7%.
Then `CN(CC(O)Cn1cnc2c1c(=O)n(C)c(=O)n2C)c1ccccc1` (stereo not shown), with 9.87%; and `CCn1nc(C)cc1C(=O)NC1CCCc2c1cnn2-c1cc(F)cc(F)c1` (stereo not shown), with -5.58%; and `COC(CN(C)C(=O)c1ccc(CS(=O)(=O)c2ccccc2C)o1)OC`, with 15.4%.
In the case of `O=C(NCCN1C(=O)S/C(=C\c2cccnc2)C1=O)c1ccc(S(=O)(=O)N2CCCC2)cc1` it was -11.3%; in that of `Cc1cccc(C)c1N/C=C/c1onc(C)c1[N+](=O)[O-]`, 13.9%; in that of `O=c1c(Cl)c(N2CCN(c3ccccc3)CC2)cnn1C12CC3CC(CC(C3)C1)C2`, -12%.
Regarding `CC1CCc2cc(F)ccc2N1C(=O)CSc1nnc2c(n1)[nH]c1ccccc12` (stereo not shown), the “hERG current change (%, negative = inhibition) at 10uM” value was determined as 17.4%.
In the case of `Cc1ccc(-c2csc(NC(=O)CN3C(=O)CCC3=O)n2)cc1` it was 8.89%; in that of `NC(Cc1c[nH]c2ccccc12)C(=O)Nc1ccccc1` (stereo not shown), -9.72%.
In the case of `Cc1nn(C)c(C(=O)N/N=C/c2cccc(Oc3ccccc3)c2)c1Br` it was 16.4%; in that of `CC(=O)CCC1C2C(O)C(C(C)C)C(OC(=O)/C=C/c3ccccc3)CC12C` (stereo not shown), -14.6%; in that of `CCCCN1CC(=O)N2[C@H]3c4cc(OC)ccc4OC[C@@H]3[C@H](C(=O)OCC)[C@]2(C)C1=O`, -3.7%.
Then `CN(c1ccc(C(=O)NCc2cccnc2)cc1)S(=O)(=O)c1ccc(Cl)cc1`, with -15.8%.
In the case of `O=C(Nc1ccc2c(c1)OCO2)c1ccc(Cl)cc1Cl`, the “hERG current change (%, negative = inhibition) at 10uM” value is 2.07%.
Then `Cc1cc(C)c(C#N)c(SCCS(=O)(=O)c2ccc(C(C)(C)C)cc2)n1`, with -5.75%; and `O=C(NCCOc1ccccc1)c1ccc2c(c1)OCO2`, with 0.267%.
Then `CN(CC(=O)Nc1ccc(F)c(F)c1)S(=O)(=O)c1cccc2cccnc12`, with -36.9%; and `Cc1csc(NC(=O)CSc2nnc(-c3ccccn3)n2-c2ccc(C)c(C)c2)n1`, with -78.5%.
As to `CCCN1CCN(CC(=O)Nc2nnc(C)s2)CC1`, the “hERG current change (%, negative = inhibition) at 10uM” value is 23.6%.
Then `CC(=O)Nc1ccc(NC(=O)c2ccc(N(C)S(=O)(=O)c3ccc(C)cc3)cc2)cc1`, with 6.8%; and `Cc1ccc(N2CC(C(=O)N/N=C/c3sccc3C)CC2=O)cc1` (stereo not shown), with -12%; and `CCC1(C)COC2(OC1)C(=O)Nc1ccccc12` (stereo not shown), with 8.96%.
Then `Cc1csc(SCC(=O)c2ccc(S(=O)(=O)N3CCOCC3)cc2)n1`, with 3.44%; and `COc1ccc(CN(C)C(=O)C2CC(=O)N(c3ccc4c(c3)OCCO4)C2)c(OC)c1` (stereo not shown), with -7.84%; and `O=C(CSc1nc2c(c(=O)n1-c1ccc(F)cc1)SCC2)NCC1CCCO1` (stereo not shown), with -2.45%.
In the case of `C/C(CC(=O)Nc1ccc(Cl)cc1Cl)=N\NC(=O)C(=O)NCCO` it was 6.64%; in that of `CCN(C(=O)CSc1nc2cc(S(=O)(=O)N(CC)CC)ccc2n1CC)C1CCS(=O)(=O)C1` (stereo not shown), -44.4%; in that of `CCOc1cc(C(=O)Nc2cc(C)ccc2OC)ccc1OCC(=O)N1CCCCC1`, -5.75%.
Regarding `FC(F)Oc1ccc(NC(=S)NCc2ccccc2)cc1`, the “hERG current change (%, negative = inhibition) at 10uM” value was -36.9%.
On to `FC(F)(F)c1cccc(NC(=S)NCc2ccccc2)c1`, for which the “hERG current change (%, negative = inhibition) at 10uM” value is given as -9.97%.
Then `CC(=O)c1ccc(Nc2nc(=O)c3cccnc3s2)cc1`, with 0.27%; and `CNC(=S)NNc1nc(C)cc(C)n1`, with 17.6%; and `Cc1ccc2nc(NC(=O)CSc3nc(=O)n(CCN(C)C)c4c3CCCC4)sc2c1`, with -50.2%.
Then `CC1=C(C(=O)N2CCOCC2)C(c2ccc(Cl)cc2)NC(=S)N1` (stereo not shown), with 10.8%; and `CCOC(=O)c1c(NC=O)sc2c1CCC2`, with -2.89%; and `CN(C)CCCSc1nc(-c2ccccc2)nc2c1CCC2`, with -50.3%.
Then `O=C(NCCc1ccccc1)c1ccc2c(c1)N(Cc1ccccc1)C(=O)CS2=O` (stereo not shown), with -8.69%.
Consider `COC(=O)c1ccccc1S(=O)(=O)N1CCC(C(=O)OCc2ccc([N+](=O)[O-])cc2)CC1`, for which the “hERG current change (%, negative = inhibition) at 10uM” value is recorded as -57.1%.
Consider `CCCc1cc(=O)[nH]c(SCC(=O)Nc2nonc2N)n1`, for which the “hERG current change (%, negative = inhibition) at 10uM” value was -5.4%.
With `COc1cccc(-n2nnnc2SCC(=O)NC2CCCC2)c1`, the “hERG current change (%, negative = inhibition) at 10uM” value turned out to be 3.62%.
In the case of `COc1cccc(CN2C(=O)C(C)Oc3ccccc32)c1` (stereo not shown) it was 8.93%; in that of `COc1ccc(S(=O)(=O)N2CCC(NC(=O)OCc3c(Cl)cccc3Cl)CC2)cc1`, 12.8%; in that of `Cc1cc(NC(=O)CSc2nc(-c3ccccc3)nc3c2c(=O)n(C)c(=O)n3C)no1`, 9.63%.
Then `O=C(CN1C(=O)CSc2cc(S(=O)(=O)N3CCCCCC3)ccc21)NCCc1ccccc1`, with -12.6%; and `COc1ccc(-c2nn(CCC(=O)O)cc2/C=N/NC(N)=S)cc1`, with 2.54%.
With `COc1ccc(C(=O)NCCc2nnc3ccc(SCC(=O)Nc4cc(C)on4)nn23)cc1`, the “hERG current change (%, negative = inhibition) at 10uM” value stood at 4.8%.
In the case of `CCCCC(=O)NC(c1ccc(Cl)cc1)c1ccc2cccnc2c1O` (stereo not shown) it was -23.5%; in that of `O=[N+]([O-])c1ccc(O)c([N+](=O)[O-])c1`, 9.06%.
In the case of `Cc1ccc(-n2ncc3c(=O)n(CC(=O)NCc4ccco4)cnc32)cc1C` it was 19.3%; in that of `S=c1[nH]nc(-c2ccc(Cl)cc2)n1-c1cccnc1`, 23.5%.
In the case of `CCCOP(=O)(OCCC)C(NC(=O)c1ccccc1)=C(Cl)Cl`, the “hERG current change (%, negative = inhibition) at 10uM” value is -1.95%.
Then `O=C(Cn1ncc2c([nH]c3ccccc32)c1=O)NCC1CCN(Cc2ccccc2F)CC1`, with -44.2%; and `O=c1nc(NCc2ccccc2Cl)cn[nH]1`, with -6.73%; and `N=C1/C(=C/c2cccn2Cc2ccc(Cl)cc2)C(=O)N=C2SC=CN12`, with -2.07%.
With `COc1ccc(C)cc1NC(=S)NC12CN3CN(CN(C3)C1)C2`, the “hERG current change (%, negative = inhibition) at 10uM” value amounted to 27%.
Then `CC(C)(C)OC(=O)[C@H](Cc1ccccc1)NC(=O)c1[nH]cnc1C(=O)N[C@@H](Cc1ccccc1)C(=O)OCc1ccccc1`, with -8.83%; and `Cc1ccc(C(=O)N2CC(=O)Nc3ccc(F)cc3C2c2ccc(F)cc2)cc1[N+](=O)[O-]` (stereo not shown), with -47.6%.
In the case of `Cc1nn(CC(=O)N2CCC(C(N)=O)CC2)c(=O)c2nn(-c3ccccc3)c(C)c12` it was 11.1%; in that of `COc1ccc(/C=N/N=C2/NC(=O)C(CC(=O)O)S2)cc1OCc1ccccc1Cl` (stereo not shown), -0.227%; in that of `C/C(=N\OC(=O)c1ccc(Br)cc1)c1ccccn1`, -1.74%.
Then `CCOC(=O)N1CCC(NC(=O)CCc2c(C)nc3ncnn3c2C)CC1`, with 12.4%; and `O=C(O)C1CSC(c2ccccc2Cl)N1C(=O)c1ccc(Cl)cc1` (stereo not shown), with 14.9%.
As for `COc1ccc(NC(=O)CN(c2c(C)cccc2C)S(C)(=O)=O)cc1`, the “hERG current change (%, negative = inhibition) at 10uM” value is given as -42.5%.
Then `O=C(Nc1ccccc1)c1ccc(Br)o1`, with 3.15%; and `COc1ccc(NC(C)=O)cc1S(=O)(=O)NC(C)c1ccc(-n2ccnc2)cc1` (stereo not shown), with -3.74%.
Then `COc1ccc(NC(=O)CC2S/C(=N\c3nccs3)N(C)C2=O)cc1` (stereo not shown), with 4.06%; and `O=C(c1cc2ccccc2oc1=O)N(Cc1ccccc1)CC1CCCO1` (stereo not shown), with -1.8%.
